# Measured values published in the supplement of paper PMC8728848.
# The list shows a part of the results.
# How the values were obtained:
# Assay in all cases: glycan array binding signal (z-score within array); higher = stronger binding
# Details in all cases: glycan notation: IUPAC condensed, linker removed
# [1] = molecular target: Gal3S4S(b1-4)GlcNAc
# In short: (§1)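 From the Consortium for Functional Glycomics database, 3228 arrays were curated, keeping only those whose protein sequence was available. Binding is given as a within-array Z-score averaged across arrays sharing a protein sequence and across linkers. Negative Z-scores can be read as non-binding.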
# [2] = molecular target: Gal3S6S(b1-4)GlcNAc
# In short: as §1
# [3] = molecular target: Gal3S6S(b1-4)GlcNAc6S
# In short: as §1
# [4] = molecular target: Gal4S(b1-4)GlcNAc
# In short: as §1
# [5] = molecular target: Gal4S6S(b1-4)GlcNAc
# In short: as §1
# [6] = molecular target: Gal6P(b1-4)GlcNAc
# In short: as §1
# [7] = molecular target: Gal6S(b1-3)GlcNAc
# In short: as §1
# [8] = molecular target: Gal6S(b1-3)GlcNAc6S
# In short: as §1
# [9] = molecular target: Gal6S(b1-4)Glc
# In short: as §1
# [10] = molecular target: Gal6S(b1-4)Glc6S
# In short: as §1
# [11] = molecular target: Gal6S(b1-4)GlcNAc
# In short: as §1
# [12] = molecular target: Gal6S(b1-4)GlcNAc6S
# In short: as §1
# [13] = molecular target: GalNAc(a1-3)Gal
# In short: as §1
# [14] = molecular target: GalNAc(a1-3)GalNAc
# In short: as §1
# [15] = molecular target: GalNAc(a1-3)GalNAc(b1-3)Gal(a1-4)Gal(b1-4)Glc
# In short: as §1
# [16] = molecular target: GalNAc(a1-3)GalNAc(b1-3)Gal(a1-4)Gal(b1-4)GlcNAc
# In short: as §1
# [17] = molecular target: GalNAc(b1-3)Gal
# In short: as §1
# [18] = molecular target: GalNAc(b1-3)Gal(a1-4)Gal(b1-4)GlcNAc
# In short: as §1
# [19] = molecular target: GalNAc(b1-3)Gal(a1-4)Gal(b1-4)GlcNAc(b1-3)Gal(b1-4)Glc
# In short: as §1
# [20] = molecular target: GalNAc(b1-3)Gal(a1-6)Gal(b1-4)Glc
# In short: as §1
# [21] = molecular target: GalNAc(b1-3)GalNAc
# In short: as §1
# [22] = molecular target: GalNAc(b1-3)GlcNAc
# In short: as §1
# [23] = molecular target: GalNAc(b1-4)Gal(b1-4)Glc
# In short: as §1
# [24] = molecular target: GalNAc(b1-4)GlcNAc
# In short: as §1
# [25] = molecular target: GalNAc(b1-4)GlcNAc(b1-2)Man
# In short: as §1
# [26] = molecular target: GalNAc(b1-4)GlcNAc(b1-2)Man(a1-3)[GalNAc(b1-4)GlcNAc(b1-2)Man(a1-6)]Man(b1-4)GlcNAc(b1-4)GlcNAc
# In short: as §1
# [27] = molecular target: GalNAc(b1-4)GlcNAc(b1-3)GalNAc(b1-4)GlcNAc
# In short: as §1
# [28] = molecular target: GalNAc(b1-4)GlcNAc6S
# In short: as §1
# [29] = molecular target: GalNAc(b1-6)GalNAc
# In short: as §1
# [30] = molecular target: GalNAc3S(b1-4)GlcNAc
# In short: as §1
# [31] = molecular target: GalNAc3S(b1-4)GlcNAc3S
# In short: as §1
# [32] = molecular target: GalNAc3S(b1-4)[Fuc(a1-3)]GlcNAc
# In short: as §1
# [33] = molecular target: GalNAc4S6S(b1-4)GlcNAc
# In short: as §1
# [34] = molecular target: GalNAc6S(b1-4)GlcNAc
# In short: as §1
# [35] = molecular target: Glc(a1-4)Glc
# In short: as §1
# [36] = molecular target: Glc(a1-4)Glc(a1-4)Glc(a1-4)Glc
# In short: as §1
# [37] = molecular target: Glc(a1-6)Glc(a1-6)Glc
# In short: as §1
# [38] = molecular target: Glc(a1-6)Glc(a1-6)Glc(a1-6)Glc
# In short: as §1
binder,measurement,setting,value
"Als1 (Candida albicans), P46590 (protein) KTITGVFDSFNSLTWSNAANYAFKGPGYPTWNAVLGWSLDGTSANPGDTFTLNMPCVFKYTTSQTSVDLTADGVKYATCQFYSGEEFTTFSTLTCTVNDALKSSIKAFGTVTLPIAFNVGGTGSSTDLEDSKCFTAGTNTVTFNDGDKDISIDVEFEKSTVDPSGYLYASRVMPSLNKVTTLFVAPQCENGYTSGTMGFSSSNGDVAIDCSNIHIGITKGLNDWNYPVSSESFSYTKTCTSNGIQIKYQNVPAGYRPFIDAYISATDVNQYTLAYTNDYTCAGSRLQSKPFTLRWTGYKNSDAGSNGIVIVATTRTVTDSTTAVTTLPFNPSVDKTKTIEILQPIPTTTITTSYVGVTTSYLTKTAPIGETATVIVDVPYHTTTTVTSEWTGTITTTTTRTNPTDSIDTVVVQVP",glycan array binding signal (z-score),[1],2.59
same,glycan array binding signal (z-score),[2],2.86
same,glycan array binding signal (z-score),[3],3.22
same,glycan array binding signal (z-score),[4],0.401
same,glycan array binding signal (z-score),[5],0.129
same,glycan array binding signal (z-score),[6],-0.562
same,glycan array binding signal (z-score),[7],-0.329
same,glycan array binding signal (z-score),[8],0.39
same,glycan array binding signal (z-score),[9],-0.309
same,glycan array binding signal (z-score),[10],-0.496
same,glycan array binding signal (z-score),[11],-0.246
same,glycan array binding signal (z-score),[12],0.563
same,glycan array binding signal (z-score),[13],-0.112
same,glycan array binding signal (z-score),[14],-1.08
same,glycan array binding signal (z-score),[15],0.222
same,glycan array binding signal (z-score),[16],0.295
same,glycan array binding signal (z-score),[17],-0.084
same,glycan array binding signal (z-score),[18],0.105
same,glycan array binding signal (z-score),[19],-0.171
same,glycan array binding signal (z-score),[20],1.09
same,glycan array binding signal (z-score),[21],0.185
same,glycan array binding signal (z-score),[22],0.265
same,glycan array binding signal (z-score),[23],0.601
same,glycan array binding signal (z-score),[24],0.055
same,glycan array binding signal (z-score),[25],-0.346
same,glycan array binding signal (z-score),[26],-0.045
same,glycan array binding signal (z-score),[27],0.046
same,glycan array binding signal (z-score),[28],0.045
same,glycan array binding signal (z-score),[29],-0.555
same,glycan array binding signal (z-score),[30],-0.713
same,glycan array binding signal (z-score),[31],-0.181
same,glycan array binding signal (z-score),[32],-0.443
same,glycan array binding signal (z-score),[33],-0.157
same,glycan array binding signal (z-score),[34],-0.164
same,glycan array binding signal (z-score),[35],0.329
same,glycan array binding signal (z-score),[36],0.492
same,glycan array binding signal (z-score),[37],-0.246
same,glycan array binding signal (z-score),[38],-0.341
